Here are results for 94 sequences from the supplement of paper PMC3334620.

In all, about 33,000 sequences were measured (“E-score (-0.5 to 0.5)”: median about -0.041, highest 2% from about 0.37 on). This is one part of the list.

This assay addresses T1, Ecm22 (UniProt Q05958).
T1 sequence: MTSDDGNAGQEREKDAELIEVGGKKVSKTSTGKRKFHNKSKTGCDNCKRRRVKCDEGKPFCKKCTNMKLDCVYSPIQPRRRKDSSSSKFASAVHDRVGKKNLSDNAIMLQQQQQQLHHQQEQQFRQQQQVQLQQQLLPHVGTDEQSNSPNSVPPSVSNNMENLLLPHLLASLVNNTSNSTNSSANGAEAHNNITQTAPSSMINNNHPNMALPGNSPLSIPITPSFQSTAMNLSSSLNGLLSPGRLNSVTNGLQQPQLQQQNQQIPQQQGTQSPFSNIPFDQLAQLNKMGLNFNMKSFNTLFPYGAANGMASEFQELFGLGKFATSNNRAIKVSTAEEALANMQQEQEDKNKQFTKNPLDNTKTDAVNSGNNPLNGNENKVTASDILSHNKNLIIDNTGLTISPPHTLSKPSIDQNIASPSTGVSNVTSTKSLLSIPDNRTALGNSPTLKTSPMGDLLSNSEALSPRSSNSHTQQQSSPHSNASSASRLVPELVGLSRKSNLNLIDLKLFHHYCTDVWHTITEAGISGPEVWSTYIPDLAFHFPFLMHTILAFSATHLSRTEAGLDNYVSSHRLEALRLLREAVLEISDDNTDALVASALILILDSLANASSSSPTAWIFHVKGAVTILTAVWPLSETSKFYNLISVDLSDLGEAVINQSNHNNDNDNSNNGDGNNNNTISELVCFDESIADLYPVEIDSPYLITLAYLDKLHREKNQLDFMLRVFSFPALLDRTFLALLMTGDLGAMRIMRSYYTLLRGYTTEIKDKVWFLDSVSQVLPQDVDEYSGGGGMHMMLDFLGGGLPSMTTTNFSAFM
In words: PBM E-score (8-mer binding enrichment) (E-score (-0.5 to 0.5)); higher = stronger / more preferred TF binding; most listed sequences are background and not binding sites. Particulars: protein concentration: 200 nM; construct: GST-full length. The procedure, abridged:
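Full-length yeast transcription factors or their DNA-binding domains, GST-tagged and expressed with PURExpress, were applied at about 100-200 nM to universal all-10-mer Agilent arrays. These arrays had been made double-stranded by primer extension on fresh or once-stripped slides. Detection used fluorescent anti-GST, normalisation used masliner, and E-scores for ungapped eight-base words pooled with reverse complements came from the Universal PBM Analysis Suite.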
On to CGTCGTGC, for which the “PBM E-score” value turned out to be 0.177.
For AGGTATAA, the “PBM E-score” value worked out at 0.211.
GCGGGGAC: the “PBM E-score” value is -0.152.
In the case of GTGGTTAA, the “PBM E-score” value was 0.00113.
As for AATGTAAA, the “PBM E-score” value was -0.0309.
In the case of AAGTGTCG, the “PBM E-score” value was found to be 0.11.
On to CGTCGGTC, for which the “PBM E-score” value came out at 0.296.
TACTTCCA: the “PBM E-score” value amounted to 0.0583.
Consider ATCCACAC, for which the “PBM E-score” value was -0.129.
For CGCGCTAG, the “PBM E-score” value worked out at 0.0304.
With GAGCACGA, the “PBM E-score” value worked out at 0.159.
Turning to ACTAATCG, the “PBM E-score” value came to 0.133.
With GCCATACA the figure was 0.133; with GATGATCA, 0.0913.
As to AGCTAGAT, the “PBM E-score” value is -0.00182.
With GGCCGTAA the figure was 0.244; with ATAGGAGA, -0.0585; with CCCCTTGA, -0.173.
Regarding TAGGTTCA, the “PBM E-score” value worked out at 0.00453.
For CGAGGCCC, the “PBM E-score” value came out at 0.0788.
For the sequence GGACAACC, the “PBM E-score” value was determined as 0.0333.
On to CCAACGTA, for which the “PBM E-score” value is 0.194.
Turning to ATCCATGC, the “PBM E-score” value is -0.11.
With CCCTGAGA, the “PBM E-score” value is -0.178.
Turning to ACTGTGCC, the “PBM E-score” value is -0.244.
With GGTTTAGA the figure was -0.179; with AAGATCCG, 0.0903; with CTAACGAC, 0.282.
With CGTAAGAC the figure was 0.203; with TAGTATAA, 0.166.
On to GCGTCCCA, for which the “PBM E-score” value was -0.156.
Turning to AAAGCCCT, the “PBM E-score” value was -0.251.
Turning to ATCTGGGG, the “PBM E-score” value was -0.142.
Regarding TACGCAGA, the “PBM E-score” value came out at 0.159.
With TGAAACAA, the “PBM E-score” value was found to be 0.0186.
Take AACCTCCG: the “PBM E-score” value is -0.0653.
ATTCACTA: the “PBM E-score” value was -0.108.
As to TATATCGA, the “PBM E-score” value was found to be 0.131.
GAGCGGAC: the “PBM E-score” value worked out at 0.119.
For the sequence GATGTGGC, the “PBM E-score” value was -0.138.
Then CTCGCGTA, with 0.317.
Then CCAGGACC, with -0.178; and GTGTACCA, with 0.0289.
As to CGAAAGCA, the “PBM E-score” value amounted to 0.203.
As for CATTGTCA, the “PBM E-score” value was -0.0156.
For the sequence GACTTCTC, the “PBM E-score” value was -0.105.
As to ATAGGGTC, the “PBM E-score” value is -0.187.
Consider AGGTAGAC, for which the “PBM E-score” value was -0.0732.
As for ACCATTAC, the “PBM E-score” value was determined as 0.149.
Then CCAACCCC, with -0.22.
With CAACGTGG the figure was -0.0743; with TGCACCCA, -0.0185; with CGCGGGTA, 0.00857.
AACGACTG: the “PBM E-score” value came to 0.393.
TTCCAAAA: the “PBM E-score” value is -0.00821.
In the case of ATACTAGA, the “PBM E-score” value stood at 0.042.
With CACCTACG the figure was -0.00657; with AGCTGCAT, -0.104.
In the case of AGTAGGAT, the “PBM E-score” value was -0.043.
With AAATTTCC, the “PBM E-score” value was found to be 0.0144.
Then ATGAGTTA, with -0.0747; and CAGTGGCA, with -0.302; and CAGAATTA, with 0.00283.
Then AGGGATGA, with -0.197.
ACAAATGT: the “PBM E-score” value amounted to 0.149.
Consider GAGGAAGA, for which the “PBM E-score” value was -0.0765.
Consider CAGCAAGG, for which the “PBM E-score” value is -0.197.
Turning to GTTCCATA, the “PBM E-score” value stood at 0.108.
With CCGCGCTA, the “PBM E-score” value was 0.0135.
For AATTGCAT, the “PBM E-score” value was found to be 0.0822.
As for ATCCTCTG, the “PBM E-score” value was -0.0183.
For CTAGATAA, the “PBM E-score” value is -0.0387.
For CGAAGTAA, the “PBM E-score” value came out at 0.25.
As for ATGGCCCC, the “PBM E-score” value was -0.209.
For GCGATACA, the “PBM E-score” value worked out at 0.111.
Then ACATCTGA, with -0.172; and ATATCAAT, with 0.0853; and ACGTGTAT, with 0.031.
With AACACTAG the figure was -0.0879.
Then ATACGGCA, with 0.404; and AGCCAGAG, with -0.0877.
For the sequence AGGTCACC, the “PBM E-score” value was -0.24.
For GACGTAGA, the “PBM E-score” value is -0.0256.
As for CAATGTAG, the “PBM E-score” value is -0.11.
Take ACCCAGCT: the “PBM E-score” value is -0.0797.
With ACGCCGGG the figure was -0.101; with AGATCATG, -0.13; with AAGTGCAC, 0.0505.
Turning to CCTGTCTC, the “PBM E-score” value was -0.177.
For AATAATAC, the “PBM E-score” value is 0.214.
As to GCGACTTA, the “PBM E-score” value is 0.0663.
ACACGCTA: the “PBM E-score” value was determined as 0.0348.
As to AGTCATGA, the “PBM E-score” value is -0.148.
Then CGATAAAG, with 0.0902.
